A collection of fitness landscapes (doi:10.1016/j.celrep.2020.107928)
Whole data set: some 81,000 sequences, median “one-hybrid fitness for binding parS DNA” near -0.17, cut for the highest 2% near 0.51. Some of the results follow.

B1: Caulobacter ParB omega fusion; a variant is named by its letters at X, in order, B8GW30 (parent)
chain: MESVVVGEPGMSEGRRGLGRGLSALLGEVDAAPAQAPGEQLGGSREAPIEILQRNPDQPRRTFREEDLEDLSNSIREKGVLQPILVRPSPDTAGEYQIVAGERAWRAAQRAGLKTVPIMVRELDDLAVLEIGIIENVQRADLNVLEEALSYKVLMEKFERTQENIAQTIGKSXSHVANXMRLLXLPDEVQSYLVSGELTAXHARAIAAAADPVALAKQIIEGGLSVRETEALARKAPNLSAGKSKGGRPPRVKDTDTQALESDLSSVLGLDVSIDHRGSTGTLTITYATLEQLDDLCNRLTRGI

Variants of: B1
Assay: one-hybrid fitness for binding parS DNA (scaled: cognate 1, non-cognate 0); higher = stronger binding
Details: with parS DNA site
Procedure, shortened: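 Selection: bacterial one-hybrid in E. coli USO, HIS3 reporter with the site 19 bp from the promoter, 48 hours at 37°C on M9-minus-histidine plus 0.1 mM IPTG and 5 mM 3-AT. Libraries were Caulobacter ParB with four randomised specificity codons, sequenced on Illumina before and after selection. Fitness is the rescaled log change in variant-to-wild-type read ratio, anchored to the cognate and non-cognate sites.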

Variant	one-hybrid fitness for binding parS DNA
LVGR	≤ 0.2
TSGT	≤ 0.2
PRAM	≤ 0.2
LRVS	≤ 0.2
KHQG	≤ 0.2
DWHD	≤ 0.2
LTQC	≤ 0.2
VPES	≤ 0.2
AGGC	≤ 0.2
FHEF	≤ 0.2
SRTV	≤ 0.2
PTAY	≤ 0.2
AHRY	≤ 0.2
LIAD	≤ 0.2
WRAT	≤ 0.2
QKYY	≤ 0.2
NCHR	≤ 0.2
AMPQ	≤ 0.2
MPVG	≤ 0.2
KWTY	≤ 0.2
NRVA	≤ 0.2
CAID	≤ 0.2
NPSA	≤ 0.2
DLKV	≤ 0.2
EEDN	≤ 0.2
TYAE	≤ 0.2

Variant	one-hybrid fitness for binding parS DNA
QLDG	≤ 0.2
FSDR	≤ 0.2
QPDR	≤ 0.2
QIIR	≤ 0.2
MVVQ	≤ 0.2
MCLT	≤ 0.2
KTGC	≤ 0.2
PHSK	≤ 0.2
QPTR	≤ 0.2
WRYF	≤ 0.2
AQLA	≤ 0.2
RQLA	0.568
HVYS	≤ 0.2
PMVG	≤ 0.2
FKTS	≤ 0.2
VCTT	≤ 0.2
ATII	≤ 0.2
REAE	≤ 0.2
RMAM	0.332
HINR	≤ 0.2
EPTQ	≤ 0.2
NFDD	≤ 0.2
NHPQ	≤ 0.2
QATA	≤ 0.2
QGNL	≤ 0.2
AFVW	≤ 0.2

Variant	one-hybrid fitness for binding parS DNA
VWGV	≤ 0.2
QGNQ	≤ 0.2
RTTV	≤ 0.2
TQLT	≤ 0.2
AKDS	≤ 0.2
LFKG	≤ 0.2
WDTK	≤ 0.2
VYDY	≤ 0.2
VQQS	≤ 0.2
GARM	≤ 0.2
SAIS	≤ 0.2
ASWL	≤ 0.2
LTQF	≤ 0.2
LWAT	≤ 0.2
RVDA	0.556
PYCC	≤ 0.2
RQKK	≤ 0.2
ELNR	≤ 0.2
RVAY	0.464
LVTY	≤ 0.2
DYQR	≤ 0.2
MRLA	≤ 0.2
MFCN	≤ 0.2
WFNN	≤ 0.2
DTAC	≤ 0.2
RFHK	≤ 0.2

Variant	one-hybrid fitness for binding parS DNA
RNAS	0.914
CGAC	≤ 0.2
VTGC	≤ 0.2
HMGG	≤ 0.2
QWNC	≤ 0.2
KRDS	≤ 0.2
KLLG	≤ 0.2
IFGG	≤ 0.2
EPKR	≤ 0.2
KQKV	≤ 0.2
HTRS	≤ 0.2
PVTR	≤ 0.2
LSCV	≤ 0.2
KSLI	≤ 0.2
KVIG	≤ 0.2
CFVS	≤ 0.2
VSPN	≤ 0.2
NNEC	≤ 0.2
HTER	≤ 0.2
KLRF	≤ 0.2
IPSV	≤ 0.2
MLYP	≤ 0.2
QYLW	≤ 0.2
VTYY	≤ 0.2
WFES	≤ 0.2
EGPK	≤ 0.2

Variant	one-hybrid fitness for binding parS DNA
CMSC	≤ 0.2
TSNL	≤ 0.2
SEAY	≤ 0.2
LTSL	≤ 0.2
PLNL	≤ 0.2
PSEN	≤ 0.2
RQYT	0.847
CACR	≤ 0.2
RDWS	≤ 0.2
TRKC	≤ 0.2
VDCY	≤ 0.2
HSAS	≤ 0.2
HAER	≤ 0.2
KVGT	≤ 0.2
DATM	≤ 0.2
GYSD	≤ 0.2
WLIM	≤ 0.2
TGHY	≤ 0.2
YLKI	≤ 0.2
GALW	≤ 0.2
EYSA	≤ 0.2
YFAR	≤ 0.2
KMHR	≤ 0.2
PLLL	≤ 0.2
QEAL	≤ 0.2
EEAR	≤ 0.2

Variant	one-hybrid fitness for binding parS DNA
GDGA	≤ 0.2
KQER	≤ 0.2
CLRL	≤ 0.2
PAQR	≤ 0.2
NPSV	≤ 0.2
MMKG	≤ 0.2
LCTD	≤ 0.2
QSKN	≤ 0.2
LKDP	≤ 0.2
DDYL	≤ 0.2
SQWT	≤ 0.2
TQCT	≤ 0.2
QLPL	≤ 0.2
NMGP	≤ 0.2
ATVC	≤ 0.2
EPWI	≤ 0.2
LYLR	≤ 0.2
NYTC	≤ 0.2
QVKM	≤ 0.2
DHIS	≤ 0.2
RILT	0.89
QVNF	≤ 0.2
NCGW	≤ 0.2
